# B1: Hu-HSA-M-27-1 (Fc fusion)
# chain: EVQLLESGGGLVQPGGSLRLSCAASGFTLDYYAIGWFRQAPGKEREGVSCIASSGGSTNYADSVKGRFTISRDNSKNTVYLQMNSLKPEDTAVYYCAAAVLECRTVVRGYDYWGQGTQVTVSS[sequence of human IgG1 Fc with changes omitted]
# notes: Humanized from HSA-M-27
# B2: HSA-30 (Fc fusion)
# chain: QVQLQESGGGLVQPGGSLRLSCKASGFTFSIYSMGWYRQVPGKEREAVATISSGGSPFYANSASGRFTISRDNAKSTVYLQMNNLKPEDTGVYSCSPITSIFKAQGQGTQVTVSS[sequence of human IgG1 Fc with changes omitted]
# B3: HSA-M-16 (Fc fusion)
# chain: QVQLQESGGGLVQPGGSLRLSCAASGFTLDYYAIGWFRQAPGKEREGVSCIASSGGSTNYADYVKGRFTISRDNAKNTVYLLMNKLKPEDTAVYYCAAAVLECRTVVREYDYWGQGTQVTVSS[sequence of human IgG1 Fc with changes omitted]
# B4: HSA-M-27 (Fc fusion)
# chain: QVQLQESGGGLVQPGGSLRLSCAASGFTLDYYAIGWFRQAPGKEREGVSCIASSGGSTNYADSVKGRFTISRDNAKNTVYLQMNKLKPEDTAVYYCAAAVLECRTVVRGYDYWGQGTQVTVSS[sequence of human IgG1 Fc with changes omitted]
# B5: HSA-M-29 (Fc fusion)
# chain: QVQLQESGGGLVQPGGSLRLSCVASRFTLDYYAIGWFRQAPGKEREGVSCIASSGGSTNYADSVKGRFTISRDNAKNTVYLQMNKLKPEDTAVYYCAAAVLECRTVVRGYDYWGQGTQVTVSS[sequence of human IgG1 Fc with changes omitted]
# B6: HSA-PH-11 (Fc fusion)
# chain: QVQLQESGGGLVQPGGSLRLSCTASGAQLEYYAIGWFRQAPGKEREGVSCISSSGGSTNNADSVKGRFTISRDNAKNTVYLQMNSLKPEDTAVYYCAAATLECRTVLTGYDYWGQGTQVTVSS[sequence of human IgG1 Fc with changes omitted]
# B7: HSA-W-20 (Fc fusion)
# chain: QVQLQESGGGLVQPGGSLRLSCAASGFTLDYYAIGWFRQAPGKEREGVSCIASSGGSTNYADSVKGRFTISRDNAENTVYLQMNSLKPEDTAVYYCAAAVLECRTVVRGYDYWGQGTQVTVSS[sequence of human IgG1 Fc with changes omitted]
# B8: HSA-PH-8 (Fc fusion)
# chain: QVQLQESGGGLVQPGGSLRLSCVASGSIWGIYHMGWYRQAPGKQRELVASITVDGSTHYADTVKGRFTISKDNAANMVYLQMNALEPEDTAVYYCDIRNVGGDYWGQGTQVTVSS[sequence of human IgG1 Fc with changes omitted]
# B9: HSA-59 (Fc fusion)
# chain: QVQLQESGGGLVQAGGSLRLSCAASGFTLDYYAIGWFRQAPGKEREEVSCISSSGGSTNYADSVKGRFTISRDNAKNTVYLQMNSLKPEDTGVYYCAAALLECRVRSWPSDNWGQGTQVTVSS[sequence of human IgG1 Fc with changes omitted]
# B10: HSA-76 (Fc fusion)
# chain: QVQLQESGGGLVQPGGSLRLSCAASGSIFTFYRMAWYRRAPGKERELVALITTDTSTNYADSVKGRFTISRDYAKNTVYLQMDSLKPEDTAAYYCNVRNVERDYWGQGTQVTVSS[sequence of human IgG1 Fc with changes omitted]
# B11: Hu-HSA-59-2 (Fc fusion)
# chain: EVQLLESGGGLVQPGGSLRLSCAASGFTLDYYAIGWFRQAPGKGLEEVSCISSSGGSTNYADSVKGRFTISRDNSKNTVYLQMNSLKPEDTAVYYCAAALLECRVRSWPSDNWGQGTQVTVSS[sequence of human IgG1 Fc with changes omitted]
# notes: Humanized from HSA-59
# B12: Hu-HSA-59-3 (Fc fusion)
# chain: EVQLLESGGGLVQPGGSLRLSCAASGFTLDYYAIGWFRQAPGKEREEVSCISSSGGSTNYADSVKGRFTISRDNSKNTVYLQMNSLRAEDTAVYYCAAALLECRVRSWPSDNWGQGTQVTVSS[sequence of human IgG1 Fc with changes omitted]
# notes: Humanized from HSA-59
# B13: Hu-HSA-M-27-1-2 (Fc fusion)
# chain: EVQLLESGGGLVQPGGSLRLSCAASGETLDYYAIGWFRQAPGKEREGVSCIASSGGSTNYADSVKGRFTISRDNSKNTVYLQMNSLKPEDTAVYYCAAAVLECRTVVRGYDYWGQGTQVTVSS[sequence of human IgG1 Fc with changes omitted]
# B14: Hu-HSA-M-27-2 (Fc fusion)
# chain: EVQLLESGGGLVQPGGSLRLSCAASGFTLDYYAIGWFRQAPGKGLEGVSCIASSGGSTNYADSVKGRFTISRDNSKNTVYLQMNSLKPEDTAVYYCAAAVLECRTVVRGYDYWGQGTQVTVSS[sequence of human IgG1 Fc with changes omitted]
# notes: Humanized from HSA-M-27
# B15: Hu-HSA-M-27-3 (Fc fusion)
# chain: EVQLLESGGGLVQPGGSLRLSCAASGFTLDYYAIGWFRQAPGKEREGVSCIASSGGSTNYADSVKGRFTISRDNSKNTVYLQMNSLRAEDTAVYYCAAAVLECRTVVRGYDYWGQGTQVTVSS[sequence of human IgG1 Fc with changes omitted]
# notes: Humanized from HSA-M-27
# B16: Hu-HSA-PH-8-1 (Fc fusion)
# chain: QVQLVESGGGLVQPGGSLRLSCSASGSIWGIYHMGWYRQAPGKQRELVASITVDGSTHYADTVKGRFTISRDNSKNMVYLQMNSLEPEDTAVYYCDIRNVGGDYWGQGTQVTVSS[sequence of human IgG1 Fc with changes omitted]
# notes: Humanized from HSA-PH-8
# B17: Hu-HSA-PH-8-2 (Fc fusion)
# chain: QVQLVESGGGLVQPGGSLRLSCSASGSIWGIYHMGWYRQAPGKGLELVASITVDGSTHYADTVKGRFTISRDNSKNMVYLQMNSLEPEDTAVYYCDIRNVGGDYWGQGTQVTVSS[sequence of human IgG1 Fc with changes omitted]
# notes: Humanized from HSA-PH-8
# B18: Hu-HSA-PH-8-3 (Fc fusion)
# chain: QVQLVESGGGLVQPGGSLRLSCSASGSIWGIYHMGWYRQAPGKQRELVASITVDGSTHYADTVKGRFTISRDNSKNMVYLQMNSLRAEDTAVYYCDIRNVGGDYWGQGTQVTVSS[sequence of human IgG1 Fc with changes omitted]
# notes: Humanized from HSA-PH-8
# Target: T1, human serum albumin (human, UniProt P02768)
# T1 construct: Bought reagent; also called HSA; HSA antigen
# Assay: BLI (ForteBio), VHH-Fc on AHQ sensor, pH 5.5
Binder,Kd,koff,kon
B1,29.9 nM,0.00547 s⁻¹,183000 M⁻¹ s⁻¹

# Target: T1, human serum albumin
# Assay: BLI (ForteBio), VHH-Fc on AHQ sensor, pH 6.5
Binder,Kd,koff,kon
B1,14.3 nM,0.00281 s⁻¹,196000 M⁻¹ s⁻¹

# Target: T1, human serum albumin
# Assay: BLI (ForteBio), VHH-Fc on AHQ sensor, pH 7.4
Binder,Kd,koff,kon
B1,50.4 nM,0.00836 s⁻¹,166000 M⁻¹ s⁻¹

# Target: T2, mouse serum albumin (mouse, UniProt P07724 25-608)
# T2 construct: Bought reagent; also called MSA
# Assay: BLI (ForteBio), VHH-Fc on AHQ sensor, 1:1 model
Binder,Kd,koff,kon
B2,25.8 nM,0.00354 s⁻¹,137000 M⁻¹ s⁻¹
B3,12.2 nM,0.00546 s⁻¹,447000 M⁻¹ s⁻¹
B4,17.4 nM,0.00752 s⁻¹,433000 M⁻¹ s⁻¹
B5,17.7 nM,0.00722 s⁻¹,408000 M⁻¹ s⁻¹
B6,6.32 nM,0.00296 s⁻¹,468000 M⁻¹ s⁻¹
B7,4.39 nM,0.00237 s⁻¹,540000 M⁻¹ s⁻¹
B8,10.5 nM,0.00288 s⁻¹,274000 M⁻¹ s⁻¹
B9,31.1 nM,0.0034 s⁻¹,109000 M⁻¹ s⁻¹
B10,31.3 nM,0.00407 s⁻¹,130000 M⁻¹ s⁻¹

# Target: T3, cynomolgus serum albumin (cynomolgus)
# T3 construct: Bought reagent; also called CSA
# Assay: BLI (ForteBio), VHH-Fc on AHQ sensor, 1:1 model
Binder,Kd,koff,kon
B2,1.2 nM,0.00039 s⁻¹,325000 M⁻¹ s⁻¹
B3,70.7 nM,0.0201 s⁻¹,284000 M⁻¹ s⁻¹
B4,71.6 nM,0.0201 s⁻¹,280000 M⁻¹ s⁻¹
B5,74.3 nM,0.0204 s⁻¹,274000 M⁻¹ s⁻¹
B6,9.07 nM,0.00537 s⁻¹,591000 M⁻¹ s⁻¹
B7,16.6 nM,0.00785 s⁻¹,473000 M⁻¹ s⁻¹
B8,6.64 nM,0.0018 s⁻¹,271000 M⁻¹ s⁻¹
B9,77.3 nM,0.0111 s⁻¹,143000 M⁻¹ s⁻¹
B10,25.7 nM,0.00549 s⁻¹,214000 M⁻¹ s⁻¹

# Target: T2, mouse serum albumin
# Assay: BLI (ForteBio), VHH-Fc on AHQ sensor, 1:1 model
# Remark: another data set of the same source
Binder,Kd,koff,kon
B1,7.79 nM,0.00393 s⁻¹,505000 M⁻¹ s⁻¹
B11,13 nM,0.00459 s⁻¹,354000 M⁻¹ s⁻¹
B12,11.7 nM,0.00419 s⁻¹,357000 M⁻¹ s⁻¹
B13,6.22 nM,0.00381 s⁻¹,612000 M⁻¹ s⁻¹
B14,8.21 nM,0.00358 s⁻¹,436000 M⁻¹ s⁻¹
B15,7.62 nM,0.00394 s⁻¹,517000 M⁻¹ s⁻¹
B16,25.5 nM,0.00685 s⁻¹,268000 M⁻¹ s⁻¹
B17,42 nM,0.00835 s⁻¹,199000 M⁻¹ s⁻¹
B18,25.6 nM,0.00653 s⁻¹,256000 M⁻¹ s⁻¹

# Target: T3, cynomolgus serum albumin
# Assay: BLI (ForteBio), VHH-Fc on AHQ sensor, 1:1 model
# Remark: another data set of the same source
Binder,Kd,koff,kon
B1,40.4 nM,0.0153 s⁻¹,378000 M⁻¹ s⁻¹
B11,80.4 nM,0.0233 s⁻¹,289000 M⁻¹ s⁻¹
B12,71.4 nM,0.0195 s⁻¹,273000 M⁻¹ s⁻¹
B13,47.8 nM,0.015 s⁻¹,314000 M⁻¹ s⁻¹
B14,43.6 nM,0.013 s⁻¹,299000 M⁻¹ s⁻¹
B15,37.7 nM,0.0153 s⁻¹,407000 M⁻¹ s⁻¹
B16,16.2 nM,0.00446 s⁻¹,276000 M⁻¹ s⁻¹
B17,32.8 nM,0.00554 s⁻¹,169000 M⁻¹ s⁻¹
B18,17.8 nM,0.00464 s⁻¹,261000 M⁻¹ s⁻¹

# Target: T1, human serum albumin
# Assay: BLI (ForteBio), VHH-Fc on AHQ sensor, 100 nM antigen, 1:1 model
Binder,Kd,koff,kon
B2,1.54 nM,0.000215 s⁻¹,140000 M⁻¹ s⁻¹
B3,38.1 nM,0.00628 s⁻¹,165000 M⁻¹ s⁻¹
B4,16.1 nM,0.00393 s⁻¹,244000 M⁻¹ s⁻¹
B5,23.3 nM,0.00585 s⁻¹,251000 M⁻¹ s⁻¹
B6,44.3 nM,0.00979 s⁻¹,221000 M⁻¹ s⁻¹
B7,22.4 nM,0.00431 s⁻¹,193000 M⁻¹ s⁻¹
B8,21.5 nM,0.00265 s⁻¹,123000 M⁻¹ s⁻¹
B9,29.1 nM,0.00162 s⁻¹,55500 M⁻¹ s⁻¹
B10,797 nM,0.00696 s⁻¹,8730 M⁻¹ s⁻¹

# Target: T1, human serum albumin
# Assay: as above
# Remark: another data set of the same source
Binder,Kd,koff,kon
B1,52 nM,0.00715 s⁻¹,138000 M⁻¹ s⁻¹
B11,1740 nM,0.0215 s⁻¹,12400 M⁻¹ s⁻¹
B12,454 nM,0.0149 s⁻¹,32900 M⁻¹ s⁻¹
B13,34.8 nM,0.00666 s⁻¹,192000 M⁻¹ s⁻¹
B14,42.3 nM,0.00566 s⁻¹,134000 M⁻¹ s⁻¹
B15,40.9 nM,0.00692 s⁻¹,169000 M⁻¹ s⁻¹
B16,72.8 nM,0.00744 s⁻¹,102000 M⁻¹ s⁻¹
B17,213 nM,0.0113 s⁻¹,53200 M⁻¹ s⁻¹
B18,60.6 nM,0.00764 s⁻¹,126000 M⁻¹ s⁻¹

# Source: patent US20250223340A1 (BIOTHEUS, published 2025)
